From PubChem BioAssay AID588855 (National Center for Advancing Translational Sciences (NCATS), 2011)
Out of some 410,000 compounds screened, about 5,000 (1.2%) were called active. The shares of active, inactive and inconclusive entries below differ from those in the screen. The call rests on the fitted dose curve; in most records, active means well fitted inhibition curve with a large enough effect; inconclusive means small, poorly fitted or top-dose-only effect; inactive means no such curve, though single readings can be large or run the other way. Potencies beside an inconclusive call are fits to weak or partial responses and may not hold up.
On the % scale 0 is the no-effect control and ±100 the full control effect; potency means the concentration at half of the fitted maximal effect; tags describe the fitted curve by direction and shape.

Assay: qHTS for Inhibitors of TGF-b; further: nearly all actives have a fitted effect of over 65% in size
Settings: HepG2 CAGA-GFP TGF-b/SMAD3 reporter, GFP fluorescence, 18 h, TGF-beta stimulated, 500 pg/mL final; series mostly up to 46.1 µM; activity, negative = inhibition: at the top concentration
Procedure, shortened: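 Per well, imaged GFP fluorescence of HEPG2 CAGA-GFP cells gives the signal; cells get compound, then TGF-beta (500 pg/mL final), 18 h at 37 degrees C; %Activity versus -TGF-beta and +DMSO controls.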
In the case of COc1cccc(NCc2cccn2-c2nnc(N3CCC(C)CC3)s2)c1, the Potency is reported as inconclusive: 14.1 µM [inhibitor, single point].
In the case of CCCn1ncc(CN2CCC(C(=O)Nc3cccc(-c4cccc(F)c4)c3)CC2)c1C, the Potency is reported as inconclusive: 22.4 µM [inhibitor, single point].
For Cc1cccc(N2C(=O)C(Oc3ccc(Cl)cc3Cl)C2C=O)c1C (stereo unspecified), the Potency was inconclusive: 35.5 µM [inhibitor, single point].
In the case of CN(CC(=O)NCCc1ccc(S(N)(=O)=O)cc1)CC(=O)Nc1ccc(F)c(F)c1F, the Potency is reported as inconclusive: 35.5 µM [inhibitor, single point].
With NNC(=O)CS(=O)(=O)CS(=O)(=O)CC(=O)NN the “activity, negative = inhibition” value was inactive: -3.12%.
In the case of Cc1ccc(-c2cn3cccnc3n2)cc1NC(=O)C(C)(C)Oc1ccc(Cl)cc1, the Potency is reported as inconclusive: 14.1 µM [inhibitor, partial curve, poor fit].
For CCN(CC)CCN(C(=O)c1ccc2c(c1)OCCO2)c1nc2ccc(C)cc2s1, the “activity, negative = inhibition” value was inactive: -11.7%.
For OC(c1ccc(F)c(F)c1)c1nc(-c2ccc(Cl)cc2)cs1 (stereo unspecified), the Potency was inconclusive: 35.5 µM [inhibitor, single point].
With Cc1c(NC(=O)COC(=O)/C=C/c2ccc(Cl)cc2)c(=O)n(-c2ccccc2)n1C the Potency was inconclusive: 6.31 µM [inhibitor, partial curve, poor fit].
With CCN(CC)CCCNc1nc2ccccc2c2[nH]c3ccc(OC)cc3c12 the Potency was inconclusive: 3.55 µM [inhibitor, partial curve, poor fit].
For Cc1ccccc1NC(=O)Cn1c(=O)n(CCCC(=O)NCc2ccc3c(c2)OCO3)c(=O)c2ccccc21, the “activity, negative = inhibition” value was inactive: 0%.
With COc1ccccc1C(=O)NC(=O)COC(=O)CCNS(=O)(=O)c1ccccc1 the “activity, negative = inhibition” value was inactive: -12%.
In the case of CN(C)CCCN(C(=O)CCOc1ccccc1)c1nc2ccc(F)cc2s1, the Potency is reported as active: 3.55 µM.
With c1ccc2nc3c(cc2c1)CCCCCC3 the “activity, negative = inhibition” value was inactive: -6.87%.
With O=c1cc(-c2ccccc2)c2ccc3c(c2o1)CN(Cc1cccc(Cl)c1)CO3 the Potency was inconclusive: 35.5 µM [inhibitor, single point].
With COc1cc(NC(=O)c2cccs2)c(OC)cc1NC(=O)Cc1ccccc1 the “activity, negative = inhibition” value was inactive: -1.51%.
In the case of COc1cc2c(cc1OC)C1=NC(=O)CN1C(SCc1ccccc1)=N2, the Potency is reported as inconclusive: 3.98 µM [inhibitor, single point].
In the case of O=C(c1cc2sccc2n1Cc1ccccc1)N1CCCc2ccccc21, the Potency is reported as inconclusive: 14.1 µM [inhibitor, partial curve, poor fit].
For CCCCCN(C(=O)CCC(=O)OCCOc1ccccc1Cl)c1c(N)n(CCCC)c(=O)[nH]c1=O, the Potency was inconclusive: 22.4 µM [inhibitor, single point].
For O=C(CCS(=O)(=O)c1cc2c(cc1Cl)NC(=O)CO2)NCc1ccc(Cl)cc1, the “activity, negative = inhibition” value was inactive: 2.9%.
In the case of COC(=O)c1c(NC(=O)CSc2nc(-c3ccco3)cc(C(F)(F)F)n2)sc2c1CCCC2, the Potency is reported as inconclusive: 7.94 µM [inhibitor, partial curve, poor fit].
For CC1C(=O)O[C@@H]2C[C@@H](C)[C@@H]3CCC(=O)[C@@]3(C)[C@@H](O)[C@H]12 (stereo partly specified), the Potency was inconclusive: 6.31 µM [inhibitor, single point].
With CCN(CC(=O)Nc1c(F)cccc1F)C(=O)c1cccc(S(=O)(=O)N(C)c2ccccc2)c1 the “activity, negative = inhibition” value was inactive: -4.8%.
For Cc1ccccc1Cn1nc(C)c(NC(=O)c2sc3ccccc3c2Cl)c1C, the “activity, negative = inhibition” value was inactive: -15.3%.
In the case of Cc1ccc(S(=O)(=O)Nc2ccc(N(C)S(=O)(=O)c3ccc(C)cc3)cc2)cc1, the Potency is reported as inconclusive: 11.2 µM [inhibitor, partial curve, poor fit].
In the case of CCOc1ccc(N=Cc2ccc([N+](=O)[O-])cc2)c(O)c1, the Potency is reported as inconclusive: 17.8 µM [inhibitor, single point].
For CCn1c2ccccc2c2cc(CN3CCN(Cc4ccc(Br)cc4)CC3)ccc21, the Potency was inconclusive: 35.5 µM [inhibitor, single point].
In the case of CCC1CCC2(CC1)NC(=O)N(CC(=O)N1CCc3ccccc31)C2=O (stereo unspecified), the Potency is reported as inconclusive: 7.94 µM [inhibitor, partial curve].
In the case of O=C(O)c1ccc(/C=C/C(=O)c2ccc3c(c2)OCCCO3)cc1, the Potency is reported as inconclusive: 22.4 µM [inhibitor, partial curve, poor fit].
For CCOC(=O)C1C(=O)NC(N2CCCCC2)=NC1c1ccccc1 (stereo unspecified), the Potency was inconclusive: 12.6 µM [inhibitor, partial curve].
In the case of Cc1ccc(-n2c(=O)c3cccnc3n2CC(=O)NCc2ccc(Cl)cc2)cc1, the Potency is reported as inconclusive: 31.6 µM [inhibitor, partial curve, poor fit].
In the case of COC(=O)c1ccc([C@@H]2Nc3c(OC)ccc(C)c3[C@@H]3C=CC[C@@H]32)cc1, the Potency is reported as inconclusive: 22.4 µM [inhibitor, single point].
In the case of CS(=O)(=O)N1CCN(c2ccc([N+](=O)[O-])c(NCc3ccc(Cl)cc3)c2)CC1, the Potency is reported as inconclusive: 6.31 µM [inhibitor, single point].
With CC(C)C(NS(=O)(=O)c1ccc2c(c1)C(C)(C)C(=O)N2C)C(=O)NCc1ccc(F)cc1 (stereo unspecified) the “activity, negative = inhibition” value was inactive: 4.2%.
For CC1(C)CC(=O)C(C=Nc2ccc(NC3=C(C#N)C(=O)CC(C)(C)C3)cc2)=C(O)C1, the “activity, negative = inhibition” value was inactive: -11.4%.
For Cc1ccc(-c2nc(CS(=O)CC(=O)NCCCc3ccccc3)c(C)o2)cc1 (stereo unspecified), the Potency was inconclusive: 7.08 µM [inhibitor, full curve, poor fit].
With Cc1ccc(O)c(C(=O)c2cnn(-c3ccc(S(=O)(=O)N4CCOCC4)cc3[N+](=O)[O-])c2)c1 the Potency was inconclusive: 6.31 µM [inhibitor, single point].
With NS(=O)(=O)c1ccc(N=Nc2cc3ccccc3c(C(=O)O)c2O)cc1 the Potency was inconclusive: 10 µM [inhibitor, partial curve, poor fit].
In the case of CN1CCN(c2ccc(Cl)cc2NC(=O)/C=C/c2ccc(F)cc2)CC1, the Potency is reported as inconclusive: 35.5 µM [inhibitor, single point].
With CCC(=O)NC(Cc1ccccc1)c1nc2ccccc2[nH]1 (stereo unspecified) the “activity, negative = inhibition” value was inactive: -26.6%.
For Cc1ccc(C)c(Cn2nnc3c(=O)[nH]c(C4CCN(S(=O)(=O)c5ccc(S(=O)(=O)NC6CC6)cc5)CC4)nc32)c1, the Potency was inconclusive: 14.1 µM [inhibitor, single point].
For CCCCSc1nnc(CNC(=O)C23CC4CC(CC(C4)C2)C3)n1Cc1ccccc1, the Potency was inconclusive: 35.5 µM [inhibitor, single point].
In the case of COc1ccc(N2CCN(C(=O)CSc3nc(-c4ccc(C(C)C)cc4)no3)CC2)cc1, the “activity, negative = inhibition” value is reported as inactive: 62.1%.
In the case of COC(=O)[C@@]1(Cc2ccc(F)cc2)[C@H]2c3cc(C(=O)N(C)C)n(CCc4ccc(OC)c(Br)c4)c3C[C@H]2CN1C(=O)c1ccccc1, the Potency is reported as inconclusive: 11.2 µM [inhibitor, single point].
For C=C1C(=O)[C@]23C[C@H]1CCC2[C@@]1(C)C(C[C@@H]3O)[C@](C)(C(=O)O)C[C@H](O)[C@@H]1O (stereo partly specified), the “activity, negative = inhibition” value was inactive: -3.84%.
For O=C(Nc1cc(C(F)(F)F)ccc1Cl)C(Sc1cccc[n+]1[O-])c1ccccc1 (stereo unspecified), the Potency was inconclusive: 10 µM [inhibitor, partial curve, poor fit].
In the case of COC(=O)C1C(=O)C2=C(CC1C)NC(C)=C(C(=O)OCCOc1ccccc1)C2c1ccc(C)o1 (stereo unspecified), the “activity, negative = inhibition” value is reported as inactive: 20.5%.
For CC(C)COc1cccc(-c2cc(C(=O)N/N=C/c3ccncc3)c3ccccc3n2)c1, the “activity, negative = inhibition” value was inactive: -10.9%.
With Cc1ccsc1CCN1C(=O)N(c2ccccc2)C(=O)C1CC(=O)Nc1ccc(Cl)cc1 (stereo unspecified) the Potency was inconclusive: 35.5 µM [inhibitor, single point].
For COc1ccc(CC(=O)Nc2cc(S(=O)(=O)N3CCCC3)ccc2Cl)c(OC)c1, the “activity, negative = inhibition” value was inactive: -14.7%.
In the case of O=c1[nH]c2cc(Cl)cc(Cl)c2[nH]c1=O, the “activity, negative = inhibition” value is reported as inactive: 8.46%.
For CC1(C(=O)NS(=O)(=O)c2cccs2)CCN1C(=O)C1CC1 (stereo unspecified), the “activity, negative = inhibition” value was inactive: 3.45%.
For Fc1cccc(NC(=S)Nc2cccc3ccccc23)c1, the “activity, negative = inhibition” value was inactive: 0%.
In the case of COc1ccc(S(=O)(=O)N2CCCCC2)cc1NC(=O)CCc1nc2ccccc2c(=O)[nH]1, the Potency is reported as inconclusive: 0.447 µM [inhibitor, full curve, poor fit].
With CCN(C(=O)c1ccc2c(SCC(=O)O)c3c(nc2c1)CCC3)c1cc(Cl)ccc1OC the “activity, negative = inhibition” value was inactive: 17.1%.
With COC(=O)CSc1nc(NC#N)nc(NC(C)C)n1 the “activity, negative = inhibition” value was inactive: -5.37%.
For COc1ccc(C2c3[nH]c4ccccc4c3CCN2C(=O)CCC2CCCC2)cc1 (stereo unspecified), the Potency was inconclusive: 28.2 µM [inhibitor, single point].
With CCCCOc1cccc(OCC(=O)Nc2nc3ccccc3[nH]2)c1 the Potency was active: 14.1 µM.
For CCOC(=O)CCCCNCc1ccccc1, the “activity, negative = inhibition” value was inactive: -11.2%.
For CCSc1nnc(NC(=O)CSc2nc3c(c(=O)n2CCOC)SC(C)C3)s1 (stereo unspecified), the “activity, negative = inhibition” value was inactive: -26.7%.
With CCOc1ccccc1NC(=O)COC(=O)COc1cccc2c1OC(C)(C)C2 the “activity, negative = inhibition” value was inactive: 5.55%.
With Cc1cccc(OCC(=O)Nc2ccc(N3CCN(C(=O)c4ccco4)CC3)cc2)c1 the Potency was inconclusive: 0.891 µM [inhibitor, full curve, poor fit].
In the case of C[C@H](NC(=O)c1nc[nH]c1C(=O)NCc1ccccc1)C(=O)OCc1ccccc1, the Potency is reported as inconclusive: 22.4 µM [inhibitor, single point].
In the case of Cc1cn2c(=O)cc(COC(=O)c3ccc(NC(=O)c4ccc(F)cc4)cc3)nc2s1, the “activity, negative = inhibition” value is reported as inactive: -28.1%.
For CCc1ccc(-c2cc(C)no2)cc1S(=O)(=O)NCCCN1CCN(c2ccccc2)CC1, the Potency was active: 17.8 µM.
With CC(=O)c1cccc(-c2ccc(CN3C(CC(C)C)C(=O)N(Cc4cn(CC5CCCCC5)nn4)CCS3(=O)=O)cc2)c1 (stereo unspecified) the Potency was inconclusive: 11.2 µM [inhibitor, partial curve, poor fit].
